In publication PMC10668032:
The other results are listed elsewhere or left out. At the low end of the ranking, values are background and their order means little.

What follows are sequences tested against SIX1 homeodomain (reference allele) (UniProt Q15475) (assay: universal protein binding microarray). Details: Universal all-10-mer PBM (8x60K, AMADID 030236), 300 nM GST-tagged protein, Alexa Fluor 488 anti-GST; buffer, salt, pH and temperature not stated; high values mean tight binding; most listed sequences are background and not binding sites; double strand, one strand shown.

| Sequence | binding signal [E-score] |
| --- | --- |
| CTGGTTTA | -0.00696 |
| ATGTTCCA | -0.192 |
| CGTCGATA | 0.283 |
| GATAGATA | 0.364 |
| AGTTTGCG | -0.064 |
| CGTAGAGC | -0.119 |
| AGTTCACA | -0.14 |
| AACAATCC | 0.113 |
| CTATGAAG | -0.0539 |
| GGTACGTA | 0.129 |
| CTGACCAA | 0.0219 |
| CTGCGCTA | -0.122 |
| CGCGGTGC | -0.0751 |
| ATATCACA | 0.432 |
| ACAGGTCT | -0.106 |
| AGTTTGAG | 0.0591 |
| AAATCGGA | -0.0926 |
| AAAAACGA | -0.176 |
| GAGAAATA | 0.0402 |
| GCCTGTGA | -0.0291 |
| TCGGAGAA | 0.181 |
| AATCTTCC | -0.0351 |
| AACCTTCC | -0.233 |
| CTTTCTAA | -0.183 |
| CAAGCGGC | -0.301 |

| Sequence | binding signal [E-score] |
| --- | --- |
| AGTGGCTA | -0.0982 |
| CGCCATCA | -0.225 |
| GCGCACCA | -0.273 |
| GTGGCAAA | -0.116 |
| CAAAGCCG | -0.226 |
| TCACCTCA | 0.039 |
| AATCACAT | -0.0653 |
| GATACAGC | 0.395 |
| CAGAAGAC | -0.204 |
| AAGGGCTC | -0.228 |
| CATATGCG | 0.142 |
| CGGGGCGC | 0.108 |
| ACAGTTGC | -0.188 |
| AGCTAAAG | -0.117 |
| TAGCTCAA | 0.0467 |
| TCGAGGCA | 0.0183 |
| ACCAACAA | -0.0835 |
| AAGTTTCC | -0.252 |
| ATCCCTCG | 0.337 |
| CATTAGCG | -0.169 |
| AAAATTAC | -0.192 |
| ATATCAGG | 0.403 |
| GACAAGGC | -0.184 |
| GCGTATCA | 0.481 |
| GCGCATCC | 0.0687 |

| Sequence | binding signal [E-score] |
| --- | --- |
| GAATTGGA | 0.0329 |
| ATTAATTA | -0.0488 |
| GTCGGGCA | -0.0448 |
| CATGCTGG | -0.0736 |
| CACCTAGC | -0.0226 |
| AAAGGGAG | -0.138 |
| CCATTTCC | -0.255 |
| CGACGTTA | -0.091 |
| CAAAAGTA | 0.0333 |
| CCGAGTTA | -0.136 |
| GAGTTGGC | -0.201 |
| ACTCACAA | -0.0484 |
| CCCATCAC | 0.0662 |
| AATGCTTC | -0.227 |
| AGGTACTC | -0.0416 |
| GGTGATCA | 0.315 |
| AAGGATCA | 0.383 |
| CCTTCCTC | -0.164 |
| CCGGCCGC | -0.128 |
| ACGCTAAC | -0.21 |
| AATGACCT | -0.118 |
| ACGTCGAT | 0.0999 |
| AGTGTAGA | 0.0276 |
| ATAAGTCA | -0.251 |
| CTCTACTA | 0.0214 |

| Sequence | binding signal [E-score] |
| --- | --- |
| GGGACCTA | -0.0157 |
| CGACCTTA | -0.151 |
| ATCGGCGC | 0.0546 |
| ATCGACTA | 0.13 |
| AGATGGCG | -0.0391 |
| TAGTCAGA | -0.179 |
| GAGAGTTA | -0.141 |
| AACGGTTA | -0.146 |
| CTAAGACA | 0.0886 |
| ACGGCGCA | -0.148 |
| ATTTAACA | -0.186 |
| ATCTGCGG | 0.0781 |
| CTAGGCAC | -0.114 |
| AAAGTCAC | -0.356 |
| CAGGGTCC | -0.276 |
| CCTTTCCG | -0.0548 |
| CCAGAATC | 0.0148 |
| CTCTAGAA | -0.0409 |
| CCCCCTTA | -0.0313 |
| AACAGAGC | -0.272 |
| CGGACCGC | -0.18 |
| AGCCAGCG | -0.0663 |
| AGCGCATG | -0.109 |
| CTCCCTGA | -0.0336 |
| ACTATCAC | 0.279 |

| Sequence | binding signal [E-score] |
| --- | --- |
| AGGTGCTA | -0.149 |
| TCTAATCA | 0.108 |
| CAGTACCG | -0.0432 |
| CTCCGACC | -0.107 |
| GTATAAAA | 0.246 |
| TGACCACA | -0.153 |
| AAAAACGG | -0.135 |
| ATCTGCAA | 0.116 |
| GGCTGGAA | -0.135 |
| ACAGCAGA | -0.115 |
| ATGGGAAC | 0.00488 |
| TCACCCCA | 0.129 |
| CTCGGAGA | 0.0356 |
| CTCTATCA | -0.136 |
| CACGCGGC | -0.281 |
| ATGGCATA | 0.0528 |
| TAAACGAA | -0.0948 |
| GGGGTTGA | 0.0834 |
| AAGAGTGC | -0.286 |
| AAATACTA | -0.121 |
| AGAGATTC | 0.0328 |
| ATGGCCAC | -0.172 |
| TTAGGAAA | -0.178 |
| AATGTCAG | -0.288 |
| AACAATAG | -0.264 |

| Sequence | binding signal [E-score] |
| --- | --- |
| AATCGTTC | -0.0796 |
| AACTTCAG | -0.248 |
| ATTCTAAG | -0.0788 |
| AAACGTTT | -0.234 |
| GATCTCAA | 0.213 |
| GCTCATCC | 0.219 |
| CCAAGGCC | -0.136 |
| CATTCCTC | -0.0285 |
| ACGGTGCC | -0.03 |
| CCTCCGCG | -0.00962 |
| AGTACTAA | -0.0633 |
| AACTCATT | -0.278 |
| GAACAGAC | -0.183 |
| AACGTCGG | -0.107 |
| CGACCGCG | -0.167 |
| CAACTGGA | -0.102 |
| TAGCAAAA | -0.00498 |
| AAACTCCA | -0.131 |
| AACAGTTG | -0.293 |
| ATGTCAGA | -0.185 |
| ACAAAACA | -0.177 |
| CAAGACCG | -0.0497 |
| AACTGAGG | -0.27 |
| CTAGTATA | 0.242 |
| GCGAGCGA | -0.0209 |

| Sequence | binding signal [E-score] |
| --- | --- |
| TCGTAAGA | -0.113 |
| ATAAGCAG | 0.173 |
| AAAAACGT | -0.252 |
| AACGGGGG | -0.0928 |
| GTCCGCAA | -0.143 |
| AATCCGAT | 0.341 |
| TGCCTCCA | -0.131 |
| ATTGACCG | -0.0783 |
| ATTAGAAG | -0.0415 |
| GGTCAAGA | -0.0244 |
| CACCCCAC | 0.263 |
| GGGTAACC | 0.018 |
| GGCTGGTA | 0.0382 |
| CAAGGCGC | -0.185 |
| TAAGTTCA | -0.0868 |
| GGTAGACC | 0.0487 |
| GCTCAGAC | -0.188 |
| AACGGTGA | 0.00372 |
| ATCCTGAG | 0.203 |
| CAATCCGC | 0.29 |
| ATCCTGCA | 0.241 |
| CAGACGCC | -0.0815 |
